Biological target: human claudin18.2 (Claudin 18.2, Genbank NP_001002026) (human)
Assay: cell-based or functional assay

ADCC effect IC50, FcrR3A-V158-NFAT-RE-Jurkat reporter luminescence, NUGC4 cells with high claudin18.2 expression: 0.0322 µg/mL
ADCC effect IC50, FcrR3A-V158-NFAT-RE-Jurkat reporter luminescence, NUGC4 cells with low claudin18.2 expression: 0.0355 µg/mL
ADCC effect IC50, FcrR3A-V158-NFAT-RE-Jurkat reporter luminescence, NUGC4 cells with moderate claudin18.2 expression: 0.03 µg/mL
B1: humanized antibody h1902-5 (antibody, human IgG1, kappa)
heavy: EVQLVQSGAEVKKPGASVKVSCKASGYTFTSYWMHWVRQAPGQRLEWMGMIHPNSGSTNYNEKFKGRVTITRDTSASTAYMELSSLRSEDTAVYYCARLKTGNSFDYWGQGTTVTVSS[not shown - human IgG1 constant region]
light: DIVLTQSPDSLAVSLGERATINCKSSQSLLNSGNQKNYLTWYQQKPGQPPKLLIYWASTRESGVPDRFSGSGSGTDFTLTISSLQAEDVAVYYCQNAYTYPFTFGQGTKLEIKRTVAAPSVFIFPPSDEQLKSGTASVVCLLNNFYPREAKVQWKVDNALQSGNSQESVTEQDSKDSTYSLSSTLTLSKADYEKHKVYACEVTHQGLSSPVTKSFNRGEC
